# Results reported in the supplement of paper PMC8728848.
# This is one part of the list.
# B1: Na-CTL-1 (Necator americanus) (protein)
# chain: MQRSFLLLLVVLAGAWAVNTTIPLKLMGGFTPMKYQCVGRVSDIWADVLFLIESSDMITKSGFRQVIAFITATTKKMTIGQDEKQTRVGFITYGEEAKLIYDLDHWRSTEKLSDLVQKIPYVKSSGTNIAAAIALANKVFNSPTHRPNVPKVMVIVANGLKKGSQNPIPVATAFKDFGGIIITIEYTQYDNIQVPILKKIASEGYNIRSNDEDFSVRTLTNMLLQANCFCPDHYVPFRVNNPEFGCFVTAKIPSMWRDAAEMCRAVEEGKLVKVENEEKAAFIMKLVGPKKEAWIGLRYYGNKFQWTDGTKLNADDFNLWPEDIKELNGPHCVSMYQDQKDKKYYWRAGKCLEDMRYVCEVQPCSASNYCSEPVFMYRQKHRALLPAPPPPPN
# Tests used:
# Assay in all cases: glycan array binding signal (z-score within array); higher = stronger binding
# Conditions in all cases: glycan notation: IUPAC condensed, linker removed
# [1] = target: Fuc(a1-2)[GalNAc(a1-3)]Gal(b1-3)GlcNAc(b1-6)GalNAc
# Outline: (§1)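 Glycan array data were curated from 3228 arrays in the Consortium for Functional Glycomics database and kept only where the protein sequence was available. Glycan names were converted to IUPAC-condensed notation, and columns mapping to the same glycan were averaged. The binding signal is a within-array Z-score, averaged across arrays of the same protein sequence at different concentrations or buffers and across linkers. Negative Z-scores can be read as non-binding.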
# [2] = target: Fuc(a1-2)[GalNAc(a1-3)]Gal(b1-4)Glc
# Outline: as §1
# [3] = target: Fuc(a1-2)[GalNAc(a1-3)]Gal(b1-4)GlcNAc
# Outline: as §1
# [4] = target: Fuc(a1-2)[GalNAc(a1-3)]Gal(b1-4)GlcNAc(b1-2)Man
# Outline: as §1
# [5] = target: Fuc(a1-2)[GalNAc(a1-3)]Gal(b1-4)GlcNAc(b1-2)Man(a1-3)[Fuc(a1-2)[GalNAc(a1-3)]Gal(b1-4)GlcNAc(b1-2)Man(a1-6)]Man(b1-4)GlcNAc(b1-4)GlcNAc
# Outline: as §1
# [6] = target: Fuc(a1-2)[GalNAc(a1-3)]Gal(b1-4)GlcNAc(b1-2)Man(a1-3)[Fuc(a1-2)[GalNAc(a1-3)]Gal(b1-4)GlcNAc(b1-2)Man(a1-6)]Man(b1-4)GlcNAc(b1-4)[Fuc(a1-6)]GlcNAc
# Outline: as §1
# [7] = target: Fuc(a1-2)[GalNAc(a1-3)]Gal(b1-4)GlcNAc(b1-3)Gal(b1-4)GlcNAc
# Outline: as §1
# [8] = target: Fuc(a1-2)[GalNAc(a1-3)]Gal(b1-4)GlcNAc(b1-3)Gal(b1-4)GlcNAc(b1-3)Gal(b1-4)GlcNAc
# Outline: as §1
# [9] = target: Fuc(a1-2)[GalNAc(a1-3)]Gal(b1-4)GlcNAc(b1-3)GalNAc
# Outline: as §1
# [10] = target: Fuc(a1-2)[GalNAc(a1-3)]Gal(b1-4)GlcNAc(b1-3)[Fuc(a1-2)[GalNAc(a1-3)]Gal(b1-4)GlcNAc(b1-6)]GalNAc
# Outline: as §1
# [11] = target: Fuc(a1-2)[GalNAc(a1-3)]Gal(b1-4)GlcNAc(b1-6)GalNAc
# Outline: as §1
# [12] = target: Fuc(a1-2)[GalNAc(a1-3)]Gal(b1-4)[Fuc(a1-3)]GlcNAc
# Outline: as §1
# [13] = target: Fuc(a1-2)[GalNAc(a1-3)]Gal(b1-4)[Fuc(a1-3)]GlcNAc(b1-3)GalNAc
# Outline: as §1
# [14] = target: Fuc(a1-2)[GalNAc(a1-4)]Gal(b1-4)GlcNAc
# Outline: as §1
# [15] = target: Fuc(a1-2)[GalNAc(b1-3)]Gal
# Outline: as §1
# Fuc(a1-3)GlcNAc = target: Fuc(a1-3)GlcNAc
# Outline: as §1
# [16] = target: Fuc(a1-3)[Gal(b1-4)]Glc6S
# Outline: as §1
# [17] = target: Fuc(a1-3)[Gal(b1-4)]GlcNAc
# Outline: as §1
# [18] = target: Fuc(a1-3)[Gal(b1-4)]GlcNAc(b1-2)Man
# Outline: as §1
# [19] = target: Fuc(a1-3)[Gal(b1-4)]GlcNAc(b1-2)Man(a1-3)[Fuc(a1-3)[Gal(b1-4)]GlcNAc(b1-2)Man(a1-6)]Man(b1-4)GlcNAc(b1-4)GlcNAc
# Outline: as §1
# [20] = target: Fuc(a1-3)[Gal(b1-4)]GlcNAc(b1-2)Man(a1-3)[Fuc(a1-3)[Gal(b1-4)]GlcNAc(b1-2)Man(a1-6)]Man(b1-4)GlcNAc(b1-4)[Fuc(a1-6)]GlcNAc
# Outline: as §1
# [21] = target: Fuc(a1-3)[Gal(b1-4)]GlcNAc(b1-3)Gal(b1-3)[Fuc(a1-4)]GlcNAc
# Outline: as §1
# [22] = target: Fuc(a1-3)[Gal(b1-4)]GlcNAc(b1-3)Gal(b1-4)[Fuc(a1-3)]GlcNAc
# Outline: as §1
# [23] = target: Fuc(a1-3)[Gal(b1-4)]GlcNAc(b1-3)Gal(b1-4)[Fuc(a1-3)]GlcNAc(b1-3)Gal(b1-4)[Fuc(a1-3)]GlcNAc
# Outline: as §1
# [24] = target: Fuc(a1-3)[Gal(b1-4)]GlcNAc(b1-3)GalNAc
# Outline: as §1
# [25] = target: Fuc(a1-3)[Gal(b1-4)]GlcNAc(b1-6)GalNAc
# Outline: as §1
# [26] = target: Fuc(a1-3)[Gal(b1-4)]GlcNAc(b1-6)[Gal(b1-3)GlcNAc(b1-3)]Gal(b1-4)Glc
# Outline: as §1
# [27] = target: Fuc(a1-3)[Gal(b1-4)]GlcNAc6S
# Outline: as §1
# [28] = target: Fuc(a1-3)[Gal3S(b1-4)]Glc
# Outline: as §1
# [29] = target: Fuc(a1-3)[Gal3S(b1-4)]GlcNAc
# Outline: as §1
# [30] = target: Fuc(a1-3)[Gal3S(b1-4)]GlcNAc6S
# Outline: as §1
# [31] = target: Fuc(a1-3)[GalNAc(b1-4)]GlcNAc
# Outline: as §1
# [32] = target: Fuc(a1-3)[GalNAc(b1-4)]GlcNAc6S
# Outline: as §1
# Fuc(a1-4)GlcNAc = target: Fuc(a1-4)GlcNAc
# Outline: as §1
# Fuc(b1-3)GlcNAc = target: Fuc(b1-3)GlcNAc
# Outline: as §1
# Gal(a1-2)Gal = target: Gal(a1-2)Gal
# Outline: as §1
# Gal(a1-3)Gal = target: Gal(a1-3)Gal
# Outline: as §1
binder,measurement,setting,value
B1,glycan array binding signal (z-score),[1],-0.297
same,glycan array binding signal (z-score),[2],-0.474
same,glycan array binding signal (z-score),[3],-0.289
same,glycan array binding signal (z-score),[4],-0.44
same,glycan array binding signal (z-score),[5],-0.549
same,glycan array binding signal (z-score),[6],-0.52
same,glycan array binding signal (z-score),[7],-0.187
same,glycan array binding signal (z-score),[8],0.261
same,glycan array binding signal (z-score),[9],-0.291
same,glycan array binding signal (z-score),[10],-0.755
same,glycan array binding signal (z-score),[11],-0.318
same,glycan array binding signal (z-score),[12],-0.16
same,glycan array binding signal (z-score),[13],14.8
same,glycan array binding signal (z-score),[14],0.383
same,glycan array binding signal (z-score),[15],-0.162
same,glycan array binding signal (z-score),Fuc(a1-3)GlcNAc,-0.392
same,glycan array binding signal (z-score),[16],0.865
same,glycan array binding signal (z-score),[17],0.32
same,glycan array binding signal (z-score),[18],0.208
same,glycan array binding signal (z-score),[19],-0.397
same,glycan array binding signal (z-score),[20],-0.311
same,glycan array binding signal (z-score),[21],-0.356
same,glycan array binding signal (z-score),[22],-0.001
same,glycan array binding signal (z-score),[23],-0.504
same,glycan array binding signal (z-score),[24],-0.617
same,glycan array binding signal (z-score),[25],0.681
same,glycan array binding signal (z-score),[26],-0.205
same,glycan array binding signal (z-score),[27],-0.11
same,glycan array binding signal (z-score),[28],-0.425
same,glycan array binding signal (z-score),[29],-0.075
same,glycan array binding signal (z-score),[30],-0.594
same,glycan array binding signal (z-score),[31],0.806
same,glycan array binding signal (z-score),[32],0.068
same,glycan array binding signal (z-score),Fuc(a1-4)GlcNAc,13.6
same,glycan array binding signal (z-score),Fuc(b1-3)GlcNAc,0.303
same,glycan array binding signal (z-score),Gal(a1-2)Gal,-0.633
same,glycan array binding signal (z-score),Gal(a1-3)Gal,-0.519
